# The campaign covered roughly 410,000 compounds. About 1,200 (0.29%) were called active. This list was built around the results that the source calls inconclusive (neither active nor inactive); the mix of calls is not that of the screen. Calls follow the shape of the dose curve; as a rule, active = well fitted activation curve with a large enough effect; inconclusive = small, poorly fitted or top-dose-only effect; inactive = flat fitted curve, though single readings scatter. A potency beside an inconclusive call is a rough fit, not a confirmed value.
# Experiment: qHTS of Nrf2 Activators; also: nearly all actives have a fitted effect of over 65% in size
# Conditions: AREc32 ARE-luciferase reporter (MCF7-derived line), luminescence, 24 h; activation: at 46.1 µM (top of the series)
# Text: Many diseases have some form of oxidative stress injury and ties to inflammation, causing a host of problems for the patient. The antioxidant response element (ARE) plays an important role in alleviating the harmful effects of oxidative stress. The antioxidant response element (ARE) is a transcriptional regulatory element involved in the activation of genes coding for a number of antioxidant proteins and detoxifying enzymes. These enzymes work in concert to protect tissues from oxidative insults and chemical toxicities in human hepatocytes and immune cells. The protective effects of ARE activation are primarily triggered through Nrf2 (NF-E2-related factor) binding to and activating AREs. It is known that Nrf2 controls the production of over 250 antioxidant and detoxification proteins (Hu et al., 2006), thereby protecting tissues by increasing cellular antioxidant content and suppressing inflammatory signaling pathways. The transcription factor Nrf2 is a central link between oxidative chemicals, such as phenolic antioxidants and electrophilic compounds, and the activation of ARE. Nrf2 levels are constitutively low as a consequence of its interaction with Keap1, which targets its degradation (Zipper and Mulcahy, 2002). Electrophiles react with key cysteine residues in Keap1, releasing Nrf2 and allowing its translocation to the nucleus. Once within the nucleus, Nrf2 complexes with coactivators such as p300, and binds to the AREs to induce gene transcription of cytoprotective enzymes, resulting in the prevention of toxicity. Activation of Nrf2 protects tissues by increasing cellular antioxidant content and suppressing inflammatory signaling pathways. Identifying novel and potent Nrf2 activators by using the AREc32 cell line to detect ARE activation by small molecules will lead to the identification and development of probes to study protective pathways in multiple tissues. These specific probes are essential to study the ARE pathway, and eventually to determine whether this pathway does activate genes that could protect against a host of diseases, including cardiovascular diseases, obesity, diabetes, Alzheimer's, and Parkinson's disease.
# This project's aim is to identify novel and potent Nrf2 activators by using the AREc32 cell line to detect ARE activation by small molecules, which will lead to the identification and development of probes to study the ARE pathway.
# NIH Chemical Genomics Center [NCGC]
# NIH Molecular Libraries Probe Centers Network [MLPCN]
# Assay Submitter (PI): Curtis Klaassen, University of Kansas Medical Center
# 5 uL of 1000 cells/well of AREc32_Fluc cells are seeded into 1536-well plate in OPTI-MEM medium with 5% FBS. The plates are incubated overnight at 37 deg C with 5% CO2. Then through pin tool transfer, 23 nL of compounds are added to each well before a 24 hr incubation at 37 deg C with 5% CO2. After the addition of 2.5 uL of Steady-Glo. the plates are kept at RT for 30 min, before they are read on the ViewLux.
# Potency is read from the fitted curve at half-maximal effect; tags tell the direction and shape of the fitted curve.
row,Structure (SMILES),Potency
1,CC1=CC(C)(C)Nc2ccc(OC(=O)c3ccco3)cc21,inactive
2,COCC(C)NS(=O)(=O)c1ccc(C(=O)NC(Cc2ccccc2)c2ccccc2)cc1 (configuration not stated),inactive
3,COc1ccc(NC(=O)C(OC(=O)c2ccc([N+](=O)[O-])o2)c2ccccc2)cc1Cl (configuration not stated),"inconclusive: 22.4 µM [activator, single point]"
4,O=c1cc(CCc2ccccc2)oc2cccc(O)c12,"inconclusive: 35.5 µM [activator, single point]"
5,O=C(Nc1ccc(S(=O)(=O)N2CCOCC2)cc1)c1ccc([N+](=O)[O-])o1,"inconclusive: 3.98 µM [activator, single point]"
6,Cc1cnc(=O)[nH]c1SCc1cccc(C(F)(F)F)c1,inactive
7,CC(C)C(=O)N1CCN(c2ccc(NC(=O)c3ccc([N+](=O)[O-])o3)cc2)CC1,"inconclusive: 5.01 µM [activator, single point]"
8,CCc1ccc(/C=C2\SC(=S)N(CCCC(=O)NCCCN3CCOCC3)C2=O)cc1,inactive
9,C=CCOc1ccc2c(OC)c3ccoc3nc2c1OC,inactive
10,Cc1ccc(C(=O)CCNc2ccc(Cl)cc2)o1,"inconclusive: 17.8 µM [activator, single point]"
11,CCOc1ccc(NS(=O)(=O)c2cc(NC(=O)c3cccc(C)c3)ccc2Cl)cc1,inactive
12,CCSC1=NC(=O)/C(=C2/C=Cc3ccccc3N2CC)S1,"inconclusive: 15.8 µM [activator, partial curve, poor fit]"
13,CCOc1ccc(S(=O)(=O)NCc2ccco2)c2ccccc12,active: 12.6 µM
14,CCC(CC)C(=O)Nc1cc(C)c2c(=O)oc3ccccc3c2n1,"inconclusive: 12.6 µM [activator, partial curve, poor fit]"
15,O=C(N/N=C/C=C/c1ccco1)c1ccncc1,"inconclusive: 11.2 µM [activator, partial curve, poor fit]"
16,CCc1ccc(C2=C(C)C(N3CCC(C(=O)NCc4ccccc4)CC3)=NS2(=O)=O)cc1,inactive
17,COc1ccc(N=c2oc3cc(O)ccc3cc2C(=O)NCC2CCCO2)c(OC)c1 (configuration not stated),inactive
18,COc1ccc(C(Cl)=C(C=O)c2ccc(OC)c(OC)c2)cc1OC,"inconclusive: 2.24 µM [activator, partial curve, poor fit]"
19,Cc1ccc(S(=O)(=O)Nc2cc3c(cc2NCc2ccccc2)n(C)c(=O)n3C)cc1,"inconclusive: 15.8 µM [activator, partial curve, poor fit]"
20,O=C(Nc1nc(-c2cccs2)cs1)C1=COCCO1,"inconclusive: 15.8 µM [activator, partial curve, poor fit]"
21,Cc1cc(C)nc(NC(=O)c2c(F)c(F)c(F)c(C(=O)Nc3cc(C)cc(C)n3)c2F)c1,"inconclusive: 3.55 µM [activator, single point]"
22,CSc1ncc(C(=O)N2CCN(c3cccc(Cl)c3)CC2)c(C)n1,inactive
23,COc1ccc2nc(Nc3ccccc3)sc2c1,"inconclusive: 25.1 µM [activator, single point]"

row,Structure (SMILES),Potency
1,O=C(Cn1sc2ccccc2c1=O)Nc1ccc(Br)cc1,"inconclusive: 20 µM [activator, single point]"
2,COc1cccc(/C=C2\SC(=S)N(C(C)C(=O)NC3C=CS(=O)(=O)C3)C2=O)c1 (configuration not stated),active: 17.8 µM
3,O=S(=O)(Cc1ccccc1)c1cnc2ccccc2n1,"inconclusive: 17.8 µM [activator, partial curve, poor fit]"
4,CC[C@H](C)[C@H]1O[C@]2(CC[C@@H]1C)C[C@@H]1C[C@@H](CC=C(C)[C@@H](O[C@H]3C[C@H](OC)[C@@H](O[C@H]4C[C@H](OC)[C@@H](O)[C@H](C)O4)[C@H](C)O3)[C@@H](C)C=CC=C3CO[C@@H]4[C@H](O)C(C)=C[C@@H](C(=O)O1)[C@]34O)O2,inactive
5,COc1ccc(Br)cc1C1Nc2cccc3cccc(c23)N1,active: 12.6 µM
6,O=S1(=O)C=C(Oc2ccc3ccccc3c2)c2ccccc21,"inconclusive: 10 µM [activator, partial curve, poor fit]"
7,Cn1nnnc1Sc1ncnc2scc(-c3cc4ccccc4o3)c12,"inconclusive: 3.55 µM [activator, partial curve, poor fit]"
8,COc1cc(C(=O)O/N=C(\N)Cc2ccc([N+](=O)[O-])cc2)cc(OC)c1OC,"inconclusive: 15.8 µM [activator, single point]"
9,O=C(OCC12CC3CC(CC(C3)C1)C2)c1ccc(NCc2cc(O)ccc2O)cc1,"inconclusive: 3.16 µM [activator, single point]"
10,CC(C)(C)C(=O)/C(=C/c1ccncc1)n1cncn1,"inconclusive: 3.55 µM [activator, single point]"
11,Oc1ccc(/C(Cc2ccccn2)=N\Nc2ccccc2)c(O)c1,"inconclusive: 25.1 µM [activator, single point]"
12,O=C(NCc1cccnc1)NC1(C(F)(F)F)Oc2ccccc2O1,"inconclusive: 12.6 µM [activator, partial curve, poor fit]"
13,CC(C)Cc1nnc(NC(=O)C23CC4CC(CC(C4)C2)C3)s1,inactive
14,COC(=O)Nc1ccc(SCC(=O)c2cccc([N+](=O)[O-])c2)cc1,"inconclusive: 22.4 µM [activator, single point]"
15,CCOC(=O)c1cc(-c2cccs2)nc2c1c(C)nn2-c1ccccn1,inactive
16,O=C(CCN1CCN2CCCC2C1)N1c2ccccc2Sc2ccc(Cl)cc21 (configuration not stated),inactive
17,CC(=O)Nc1ccc(O)c(-c2nc3ccccc3s2)c1,"inconclusive: 2.51 µM [activator, full curve, poor fit]"
18,Cc1cc(N/C=C/C(=O)c2cccs2)ccc1F,"inconclusive: 6.31 µM [activator, partial curve, poor fit]"
19,Fc1ccc(Nc2nc(-c3ccncc3)cs2)cc1,"inconclusive: 12.6 µM [activator, partial curve]"
20,Cc1cnc2nc(-c3ccccc3)ccc2c1,"inconclusive: 12.6 µM [activator, single point]"
21,COc1ccccc1/C=C1\C(=O)Nc2ccccc21,"inconclusive: 1.78 µM [activator, full curve, poor fit]"
22,Cc1nc2nc(-c3ccco3)[nH]n2c(=O)c1Cc1ccccc1,"inconclusive: 11.2 µM [activator, partial curve, poor fit]"
23,NS(=O)(=O)c1cccc(NC(=O)COC(=O)c2ccccc2C(=O)c2ccccc2)c1,"inconclusive: 22.4 µM [activator, single point]"

row,Structure (SMILES),Potency
1,CCOC(=O)C1CCCN(C(=O)Cn2ncc3c(C)n(Cc4ccccc4Cl)c(C)c3c2=O)C1 (configuration not stated),inactive
2,Cc1nc(Sc2ccc(Cl)cc2)c(C#N)c(C)c1[N+](=O)[O-],"inconclusive: 22.4 µM [activator, single point]"
3,COc1cccc(NC(=O)c2nn(C)cc2Br)c1,"inconclusive: 5.62 µM [activator, full curve, poor fit]"
4,Cc1cc(C)cc(NC(=O)Nc2nnc(N(C)C3CCCCC3)s2)c1,inactive
5,N#Cc1ccc(-c2ccco2)nc1SCC(=O)c1ccc(Cl)cc1,"inconclusive: 1 µM [activator, partial curve, poor fit]"
6,CC(=O)C1=C(C)OC(N)=C(C#N)C1c1cc([N+](=O)[O-])ccc1Cl (configuration not stated),active: 12.6 µM
7,Cc1ccc(/C=N/n2c(-c3ccco3)n[nH]c2=S)s1,"inconclusive: 17.8 µM [activator, single point]"
8,CCCOc1ccc(CNC(=O)Cc2cccs2)cc1,inactive
9,O=C(/C=C/c1ccc([N+](=O)[O-])cc1)Nc1ncc([N+](=O)[O-])s1,"inconclusive: 14.1 µM [activator, partial curve, poor fit]"
10,CCN(CC)S(=O)(=O)c1cccc(-c2nnc(SCc3nc4ccccc4s3)o2)c1,"inconclusive: 12.6 µM [activator, single point]"
11,COc1ccc(-c2nnc(NC(=O)c3ccc([N+](=O)[O-])o3)o2)c(OC)c1,"inconclusive: 14.1 µM [activator, partial curve, poor fit]"
12,CC(=O)c1ccc(Nc2ccc([N+](=O)[O-])c3nonc23)cc1,active: 11.2 µM
13,Cc1cccc(Nc2nnc(SCC(O)=C(C#N)c3nc4ccccc4[nH]3)s2)c1,"inconclusive: 22.4 µM [activator, single point]"
14,COc1cc(/C=N/Nc2ccccn2)cc(OC)c1O,"inconclusive: 1.58 µM [activator, full curve, poor fit]"
15,O=C(NC(=S)Nc1cccc2c(O)cccc12)c1cccc(Br)c1,"inconclusive: 0.891 µM [activator, full curve, poor fit]"
16,COc1cc(CC(=O)Nc2cccc(S(=O)(=O)N(C)c3ccccc3)c2)cc(OC)c1OC,inactive
17,Cc1cc(C)n(-c2nc3ccccc3c(=O)n2OCC#N)n1,"inconclusive: 31.6 µM [activator, single point]"
18,Clc1cccc(-c2nnc(-c3ccno3)o2)c1,"inconclusive: 15.8 µM [activator, single point]"
19,O=C(Nc1cccc2cccnc12)c1ccc(Br)o1,"inconclusive: 14.1 µM [activator, partial curve, poor fit]"
20,COCc1nnc(NC(=O)c2cc(Cl)ccc2OC)s1,active: 12.6 µM
21,COc1cc(/C=C(\C#N)C(N)=O)ccc1OCc1c(C)no[n+]1[O-],"inconclusive: 17.8 µM [activator, single point]"

# Source: PubChem BioAssay AID624171 (National Center for Advancing Translational Sciences (NCATS), 2012)
